Measured values taken from patent US20250214977A1, “STAT6 INHIBITORS AND USES THEREOF” (Kymera Therapeutics, Inc., priority 2024, published 2025).

Biological target: T1, biotinylated truncated STAT6 (123-632)-avi (Homo sapiens, UniProt P42226)
T1 sequence (P42226 123-632 limits assumed): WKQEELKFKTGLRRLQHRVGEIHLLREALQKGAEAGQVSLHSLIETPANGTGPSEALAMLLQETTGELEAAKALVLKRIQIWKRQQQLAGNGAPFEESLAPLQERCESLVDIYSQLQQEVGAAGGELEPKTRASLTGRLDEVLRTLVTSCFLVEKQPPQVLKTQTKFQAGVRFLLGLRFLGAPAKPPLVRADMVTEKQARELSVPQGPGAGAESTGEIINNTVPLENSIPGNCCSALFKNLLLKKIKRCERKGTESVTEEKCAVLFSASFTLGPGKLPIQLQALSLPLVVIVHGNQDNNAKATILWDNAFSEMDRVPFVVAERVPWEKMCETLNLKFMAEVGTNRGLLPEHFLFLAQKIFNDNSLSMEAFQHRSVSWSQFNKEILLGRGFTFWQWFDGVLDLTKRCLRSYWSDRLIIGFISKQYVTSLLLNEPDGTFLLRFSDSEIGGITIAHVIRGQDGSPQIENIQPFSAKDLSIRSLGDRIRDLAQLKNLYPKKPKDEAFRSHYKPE
Experiment: Homogenous Time-Resolved Fluorescence (HTRF) binding assay
Details: 0.15 nM biotinylated truncated STAT6 (123-632)-avi, 20 nM fluorescein-labeled probe, 30 minutes at room temperature

| SMILES | IC50 [nM] |
| --- | --- |
| CN(C)C(=O)c1cc2cc(C3=CCCN(C(=O)CCn4ccnn4)C3)cc(NCc3ccccc3C3CC3)c2o1 [Example I-878] | < 100 |
| COc1ncccc1-c1cc(C2=CCCN(C(C)=O)C2)c(F)c2[nH]c(C(=O)N(C)C)cc12 [Example I-879] | < 100 |
| COc1c(F)cccc1-c1cc(C2=CCCN(C(C)=O)C2)c(F)c2[nH]c(C(=O)N(C)C)cc12 [Example I-881] | 100 to 1000 |
| CC(=O)N1CCC=C(c2cc(-c3ccc4cnn(C)c4c3)c3cc(C(=O)N(C)C)[nH]c3c2F)C1 [Example I-882] | 100 to 1000 |
| CC(=O)N1CCC=C(c2cc(-c3ccc4n[nH]c(C)c4c3)c3cc(C(=O)N(C)C)[nH]c3c2F)C1 [Example I-883] | 100 to 1000 |
| CC(=O)N1CCC=C(c2cc(-c3cc(C#N)ccc3C)c3cc(C(=O)N(C)C)[nH]c3c2F)C1 [Example I-884] | 100 to 1000 |
| CC(=O)N1CCC=C(c2cc(-c3ccc(C)nc3)c3cc(C(=O)N(C)C)[nH]c3c2F)C1 [Example I-885] | 100 to 1000 |
| CC(=O)N1CCC=C(c2cc(-c3ccc4cncnc4c3)c3cc(C(=O)N(C)C)[nH]c3c2F)C1 [Example I-887] | 100 to 1000 |
| CC(=O)N1CCC=C(c2cc(-c3ccc(C(F)(F)F)cc3O)c3cc(C(=O)N(C)C)[nH]c3c2F)C1 [Example I-888] | 100 to 1000 |
| CC(=O)N1CCC=C(c2cc(-c3ccccc3C)c3cc(C(=O)N(C)C)[nH]c3c2F)C1 [Example I-890] | 100 to 1000 |
| CC(=O)N1CCC=C(c2cc(-c3ccc(F)cc3O)c3cc(C(=O)N(C)C)[nH]c3c2F)C1 [Example I-891] | 100 to 1000 |
| CN(C)C(=O)c1cc2cc(C3=CCCN(C(=O)CCn4ccnn4)C3)cc(NCc3ccc(C(F)(F)F)nc3)c2o1 [Example I-893] | < 100 |
| Cc1cc(CNc2cc(C3=CCCN(C(=O)CCn4ccnn4)C3)cc3cc(C(=O)N(C)C)oc23)n(C)n1 [Example I-894] | 100 to 1000 |
| CN(C)C(=O)c1cc2cc(C3=CCCN(C(=O)CCn4ccnn4)C3)cc(NCc3ccc(C#N)cc3)c2o1 [Example I-895] | < 100 |
| CN(C)C(=O)c1cc2cc(C3=CCCN(C(=O)CCn4ccnn4)C3)cc(NC[C@@H]3CCC(=O)N3C)c2o1 [Example I-896] | 100 to 1000 |
| CC(=O)N1CCC=C(c2cc(-c3cnc4[nH]cc(C)c4c3)c3cc(C(=O)N(C)C)[nH]c3c2F)C1 [Example I-897] | 100 to 1000 |
| COc1ccccc1-c1cc(C2=CCCN(C(=O)CCn3ccnn3)C2)c(F)c2[nH]c(C(=O)N3CCC(N(C)C4CC4)C3)cc12 (stereo not drawn) [Example I-898] | < 100 |
| COc1ccccc1-c1cc(C(=O)N(C)C)cc2cc(C3=CCCN(C(=O)CCn4ccnn4)C3)n(CC3CC3)c12 [Example I-899] | < 100 |
| COc1ccnc(N2CCN(C(=O)c3cc4c(-c5ccccc5OC)cc(C5=CCCN(C(=O)CCn6ccnn6)C5)c(F)c4[nH]3)CC2)c1 [Example I-900] | < 100 |
| COc1ccccc1-c1cc(C2=CCCN(C(=O)CCn3ccnn3)C2)c(F)c2[nH]c(C(=O)N3CCc4cccc(OC)c4C3)cc12 [Example I-901] | < 100 |
| CCOC(=O)c1cc2ccc(N3CCN(C(=O)c4cc5c(-c6ccccc6OC)cc(C6=CCCN(C(=O)CCn7ccnn7)C6)c(F)c5[nH]4)CC3)cn2c1 [Example I-903] | 100 to 1000 |
| COc1ccccc1-c1cc(C2=CCCN(C(=O)CCn3ccnn3)C2)c(F)c2[nH]c(C(=O)N3CCN(c4nccc(-c5ccccc5)n4)CC3)cc12 [Example I-904] | 100 to 1000 |
| COc1ccccc1-c1cc(C2=CCCN(C(=O)CCn3ccnn3)C2)c(F)c2[nH]c(C(=O)N3CCN(c4cn(C)c(=O)c5ccccc45)CC3)cc12 [Example I-905] | < 100 |
| COc1ccccc1-c1cc(C2=CCCN(C(=O)CCn3ccnn3)C2)c(F)c2[nH]c(C(=O)N3CCN(c4nccc(-c5cn(C)c6ccccc56)n4)CC3)cc12 [Example I-906] | < 100 |
| COc1ccccc1-c1cc(C2=CCCN(C(=O)CCn3ccnn3)C2)c(F)c2[nH]c(C(=O)N3CCN(c4cc(F)c(F)c5ccc(C)nc45)CC3)cc12 [Example I-907] | < 100 |
| COc1ccccc1-c1cc(C2=CCCN(C(=O)CCn3ccnn3)C2)c(F)c2[nH]c(C(=O)N3CCN(c4ccnnc4O)CC3)cc12 [Example I-908] | < 100 |
| COc1ccccc1-c1cc(C2=CCCN(C(=O)CCn3ccnn3)C2)c(F)c2[nH]c(C(=O)N3CCN(c4cc(C)c5ncnn5c4)CC3)cc12 [Example I-909] | < 100 |

| SMILES | IC50 [nM] |
| --- | --- |
| COc1ccccc1-c1cc(C2=CCCN(C(=O)CCn3ccnn3)C2)c(F)c2[nH]c(C(=O)N3CCN(c4cnc(SC)n5cnnc45)CC3)cc12 [Example I-910] | < 100 |
| COc1ccccc1-c1cc(C2=CCCN(C(=O)CCn3ccnn3)C2)c(F)c2[nH]c(C(=O)N3CCN(C)C(c4ccccc4)C3)cc12 (stereo not drawn) [Example I-911] | 100 to 1000 |
| COc1ccccc1-c1cc(C2=CCCN(C(=O)CCn3ccnn3)C2)c(F)c2[nH]c(C(=O)N3CCN(c4c(C)cccc4OC)CC3)cc12 [Example I-913] | 100 to 1000 |
| COc1ccccc1-c1cc(C2=CCCN(C(=O)CCn3ccnn3)C2)c(F)c2[nH]c(C(=O)N3CCN(c4ccnc5c4CC(=O)N5)CC3)cc12 [Example I-914] | < 100 |
| COc1ccccc1-c1cc(C2=CCCN(C(=O)CCn3ccnn3)C2)c(F)c2[nH]c(C(=O)N3CCN(c4cn5ccnc5cc4C)CC3)cc12 [Example I-915] | < 100 |
| COc1ccccc1-c1cc(C2=CCCN(C(=O)CCn3ccnn3)C2)c(F)c2[nH]c(C(=O)N3CCN(c4nc5ccccc5c5ccccc45)CC3)cc12 [Example I-916] | 100 to 1000 |
| COc1ccccc1-c1cc(C2=CCCN(C(=O)CCn3ccnn3)C2)c(F)c2[nH]c(C(=O)N3CCN(c4cc(OC)c5ccnn5c4)CC3)cc12 [Example I-917] | < 100 |
| COc1ccccc1-c1cc(C2=CCCN(C(=O)CCn3ccnn3)C2)c(F)c2[nH]c(C(=O)N3CCN(c4ccc5c(c4)C=NCC5)CC3)cc12 [Example I-918] | < 100 |
| COc1ccccc1-c1cc(C2=CCCN(C(=O)CCn3ccnn3)C2)c(F)c2[nH]c(C(=O)N3CCN(c4ccn5nc(C)nc5c4)CC3)cc12 [Example I-919] | < 100 |
| COc1ccccc1-c1cc(C2=CCCN(C(=O)CCn3ccnn3)C2)c(F)c2[nH]c(C(=O)N3CCN(c4ncnc5ncn(C)c45)CC3)cc12 [Example I-920] | < 100 |
| COc1ccccc1-c1cc(C2=CCCN(C(=O)CCn3ccnn3)C2)c(F)c2[nH]c(C(=O)N3CCN(c4cc(C)cc5c[nH]nc45)CC3)cc12 [Example I-921] | 100 to 1000 |
| COc1ccccc1-c1cc(C2=CCCN(C(=O)CCn3ccnn3)C2)c(F)c2[nH]c(C(=O)N3CCN(c4ccc(OC)c(OC)c4OC)CC3)cc12 [Example I-922] | 100 to 1000 |
| COc1ccccc1-c1cc(C2=CCCN(C(=O)CCn3ccnn3)C2)c(F)c2[nH]c(C(=O)N3CCN(c4nc(C)nc5ccccc45)CC3)cc12 [Example I-923] | < 100 |
| COc1ccccc1-c1cc(C2=CCCN(C(=O)CCn3ccnn3)C2)c(F)c2[nH]c(C(=O)N3CCN(c4cc5cccnc5cc4F)CC3)cc12 [Example I-924] | < 100 |
| COc1ccccc1-c1cc(C2=CCCN(C(=O)CCn3ccnn3)C2)c(F)c2[nH]c(C(=O)N3CCN(c4cc5cnn(C)c5cc4C)CC3)cc12 [Example I-925] | 100 to 1000 |
| COc1cc(N2CCN(C(=O)c3cc4c(-c5ccccc5OC)cc(C5=CCCN(C(=O)CCn6ccnn6)C5)c(F)c4[nH]3)CC2)c2ccnn2c1 [Example I-926] | < 100 |
| COc1ccccc1-c1cc(C2=CCCN(C(=O)CCn3ccnn3)C2)c(F)c2[nH]c(C(=O)N3CCN(c4cccc(OC(F)F)n4)CC3)cc12 [Example I-927] | 100 to 1000 |
| COc1ccccc1-c1cc(C2=CCCN(C(=O)CCn3ccnn3)C2)c(F)c2[nH]c(C(=O)N3CCN(c4c(C)ccc5c4cnn5C)CC3)cc12 [Example I-928] | < 100 |
| COc1ccccc1-c1cc(C2=CCCN(C(=O)CCn3ccnn3)C2)c(F)c2[nH]c(C(=O)N3CCN(c4ncnc5cccc(F)c45)CC3)cc12 [Example I-929] | < 100 |
| CCOC(=O)c1ccc(N2CCN(C(=O)c3cc4c(-c5ccccc5OC)cc(C5=CCCN(C(=O)CCn6ccnn6)C5)c(F)c4[nH]3)CC2)cc1 [Example I-931] | 100 to 1000 |
| COc1ccccc1-c1cc(C2=CCCN(C(=O)CCn3ccnn3)C2)c(F)c2[nH]c(C(=O)N3CCN(c4ccc(C(F)(F)F)cc4F)CC3)cc12 [Example I-932] | 100 to 1000 |
| COc1ccccc1-c1cc(C2=CCCN(C(=O)CCn3ccnn3)C2)c(F)c2[nH]c(C(=O)N3CCN(c4ccn(C)n4)CC3)cc12 [Example I-933] | < 100 |
| COc1ccccc1-c1cc(C2=CCCN(C(=O)CCn3ccnn3)C2)c(F)c2[nH]c(C(=O)N3CCN(c4cc(F)ccn4)CC3)cc12 [Example I-934] | < 100 |
| COc1ccccc1-c1cc(C2=CCCN(C(=O)CCn3ccnn3)C2)c(F)c2[nH]c(C(=O)N3CCN(c4cc(C(F)(F)F)ccn4)CC3)cc12 [Example I-935] | < 100 |
| COc1ccccc1-c1cc(C2=CCCN(C(=O)CCn3ccnn3)C2)c(F)c2[nH]c(C(=O)N3CCN(c4cccc5cncn45)CC3)cc12 [Example I-936] | < 100 |
| COc1ccccc1-c1cc(C2=CCCN(C(=O)CCn3ccnn3)C2)c(F)c2[nH]c(C(=O)N3CCN(c4cccc(C(F)(F)F)n4)CC3)cc12 [Example I-937] | 100 to 1000 |
| O=C(CCn1ccnn1)N1CCC=C(c2cc(-c3ccccc3)c3cc(C(=O)N4CCN(c5ncccc5OC5CC5)CC4)[nH]c3c2F)C1 [Example I-938] | < 100 |
